Results on 47 compounds are retold here after PubChem BioAssay AID1508624 (National Center for Advancing Translational Sciences (NCATS), 2021).

Among all 48,000 compounds or so, about 120 (0.25%) were called active. Another 4% or so got no clear call; they are omitted. The call rests on the fitted dose curve; in most records, active means well fitted activation curve with a large enough effect; inconclusive means small, poorly fitted or top-dose-only effect, or another doubt; inactive means no such curve, though single readings can be large or run the other way. The list shows a part of the results.

A short description of this assay: Primary qHTS for Identification of Small Molecule Activators of Huntingtin-Antisense Promoter Activity. Further: nearly all actives have a fitted effect of over 55% in size. Particulars: HEK293 HTT-AS promoter firefly luciferase reporter, 24 h; series mostly up to 57.5 µM; activity change, positive = activation: at the top concentration. The procedure, abridged: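 Quantitative HTS used concentration series of up to 57.5 uM final on HEK293 luciferase reporter cells, 24 h at 37 degrees C. Readout was Dual-Glo firefly luminescence.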
With `CCNC(=O)CC1C(=O)N(c2ccccc2)C(=O)N1Cc1ccc(F)cc1` (configuration not stated), the “activity change, positive = activation” value is inactive: 12.6%.
Take `COc1ccc(NC(=O)Cn2c(=O)oc3cc(S(=O)(=O)NC(C)C)ccc32)cc1OC`: the “activity change, positive = activation” value was inactive: -8.95%.
With `CCOc1ccc(C(=O)c2cn(CC(=O)Nc3cc(OC)cc(OC)c3)c3ccc(F)cc3c2=O)cc1` the figure was inactive: -48.4%; with `Cc1ccccc1Cn1c(CCCNC(=O)C2CCCCC2)nc2ccccc21`, inactive: -26%; with `COc1ccc(S(=O)(=O)N(Cc2nc(-c3cccc(C)c3)no2)C2CCCCC2)cc1`, inactive: -19.8%.
The result for `Cc1ccccc1Cn1c(SCc2ccc(C(=O)NCc3cccs3)cc2)nc2ccncc21` reads inactive: -7.76%; that for `Cc1cccc(OCc2nnc(SCC(=O)Nc3ccc(C)cc3C)o2)c1`, inactive: -17.5%.
With `COc1ccccc1N1CCN(S(=O)(=O)c2ccc3c(c2)oc(=O)n3C)CC1` the figure was inactive: -13.4%; with `CCCSCCCNC(=O)C1CCN(C(=O)c2cc3sccc3n2C)CC1`, inactive: -30.5%.
Take `Cc1nnc(N2CCC(C(=O)NC(C)C)CC2)c2nn(-c3ccc(Cl)cc3)c(C)c12`: the “activity change, positive = activation” value is inactive: -5.35%.
The result for `Cc1ccc2nc(Cl)c3cc(C(=O)N(C)C4CCCCC4)sc3c2c1` reads inactive: -2.82%; that for `CCOc1ccc(CCNC(=O)C2CCN(C(=O)N3CC(CC)Oc4ccc(C)cc43)CC2)cc1` (configuration not stated), inactive: -47%; that for `CCn1c(CNC(=O)c2ccc(OC)cc2)nnc1SCC(=O)Nc1cccc(C)c1C`, inactive: 3.15%.
Take `Cc1ccc(NC(=O)CSc2nc3ccc(NC(=O)c4cccs4)cc3s2)c(C)c1`: the “activity change, positive = activation” value is inactive: -29%.
With `COc1cccc(Cn2c(=O)n(-c3cccc(Cl)c3C)c(=O)c3c4c(sc32)CN(C(C)=O)CC4)c1` the figure was inactive: -38.7%.
As for `CCOC(=O)c1c(C)oc2nc(C)nc(NCC3CCN(Cc4cccc(C)c4)CC3)c12`, the “activity change, positive = activation” value was inactive: -16.7%.
Regarding `CC(COc1ccccc1)NC(C)C(O)c1ccc(O)cc1` (configuration not stated), the “activity change, positive = activation” value is inactive: -2.99%.
In the case of `CCc1cnc2c(c1SCC(=O)Nc1ccc(Cl)cc1)c(=O)n(C)c(=O)n2C`, the “activity change, positive = activation” value is inactive: -19.9%.
The result for `COc1ccc(-c2cc(C(F)F)n3ncc(C(=O)Nc4cc(OC)ccc4OC)c3n2)cc1` reads inactive: 0.86% [at 11.5 µM, percent change from vehicle, -100% = no light]; that for `CCOc1ccc(NC(=O)Cc2coc3ccc(C)cc23)cc1`, inactive: 3.05%.
With `COc1ccccc1NC(=O)CSc1ccc(-c2sc(C)nc2C)nn1` the figure was inactive: -13.1%; with `COc1cccc(CNCCSc2nnnn2C)c1OCc1ccc(Cl)cc1Cl`, inactive: -30.3%.
With `CCC(Nc1ccc(-c2nc(-c3ccco3)no2)cc1[N+](=O)[O-])c1ccccc1` (configuration not stated) the figure was inactive: -14.9%; with `COc1ccc(C2c3cccn3CCN2S(=O)(=O)c2ccccc2[N+](=O)[O-])cc1OC` (configuration not stated), inactive: -27%; with `O=C(NCC(c1ccc2c(c1)OCO2)N1CCOCC1)c1ccccc1F` (configuration not stated), inactive: 24.3%.
Turning to `O=C(NCc1ccccc1)c1nnc(Cc2cccc(F)c2)o1`, the “activity change, positive = activation” value was inactive: -4.16%.
Consider `CCc1ccc2occ(CC(=O)Nc3c(C(=O)Nc4ccc(OC)cc4)oc4ccccc34)c2c1`, for which the “activity change, positive = activation” value was inactive: -6.7%.
With `Cc1cccn2cc(-c3cccc(NS(=O)(=O)c4ccc(Cl)c(Cl)c4)c3)nc12` the figure was inactive: -6.6%; with `CC(C)(C)c1ccc(C(O)CCCN2CCC(C(O)(c3ccccc3)c3ccccc3)CC2)cc1` (configuration not stated), inactive: -2.13%; with `CC(CNC(=O)Cn1ccc2cc(S(=O)(=O)N3CCCCC3)ccc21)c1ccccc1` (configuration not stated), inactive: -31.3%.
The result for `COc1ccc(N2CC(NC(=O)C3CC3)CC2=O)cc1` (configuration not stated) reads inactive: -9.45%.
With `CC(=O)c1cccc(NC(=O)[C@H](Cc2ccccc2)N2Cc3ccccc3C2=O)c1` the figure was inactive: -4.5%.
For `CCC(NC(=O)Nc1ccc(OC)c(OC)c1)c1c(-n2cccc2)sc2c1CCN(C)C2` (configuration not stated), the “activity change, positive = activation” value was inactive: -7.81%.
With `COc1ccccc1C(=O)NCCSc1c(C)[nH]c2ccccc12` the figure was inactive: -43.8%; with `COc1cccc(NC(=O)CSc2nc(=O)n(Cc3ccccn3)c3c2CCC3)c1`, inactive: -16.8%; with `O=c1oc2ccc3ccccc3c2cc1-c1nnc(Nc2ccc(Cl)cc2Cl)s1`, inactive: 3.08%.
The result for `COc1ccc(CCNC(=O)c2ccc3c(c2)N=C(C)c2cc(C)ccc2S3)cc1OC` reads inactive: -36%.
The result for `CCc1ccc(NC(=O)Cn2c(=O)c(CNc3ccccc3)cc3cc(OC)c(OC)cc32)cc1` reads inactive: -12.3%; that for `Cc1cccc(NC(=O)C2CCCN(S(=O)(=O)c3c(C)[nH]c(=O)[nH]c3=O)C2)c1C` (configuration not stated), inactive: -18.4%; that for `COc1ccc(-c2nc3ccccc3o2)cc1NC(=O)C(C)(C)Oc1ccc(Br)cc1`, inactive: -15%.
Turning to `CCOc1ccc(-n2cc(-c3ccccc3)c3c(NC4CCCCC4)ncnc32)cc1`, the “activity change, positive = activation” value was inactive: -12.3%.
The result for `Cc1nn(-c2ccccc2)c(OC(=O)c2ccccc2Cl)c1S(=O)(=O)c1ccccc1` reads inactive: -10.1%.
The result for `COc1ccc2c(c1)c1c(c(=O)n(-c3cccc(Cl)c3)c(=O)n1CC(=O)NCC1CCCO1)n2C` (configuration not stated) reads inactive: -5.54%; that for `CCOc1ccc(-c2nnc(SCC(=O)NCc3ccc(C)cc3)nc2-c2ccc(OCC)c(OC)c2)cc1OC`, inactive: -19.3%; that for `CCOc1ccc(NC(=O)CSC2=Nc3ccccc3C3=NC(CCC(=O)NCc4cccs4)C(=O)N23)cc1` (configuration not stated), inactive: 3.29%.
With `COCCNC(=O)Cn1cnc2sc(C)c(S(=O)(=O)N3CCN(c4ccccc4OC)CC3)c2c1=O` the figure was inactive: 9.84%.
With `CCc1nn2c(=O)cc(COC(=O)c3ccccc3NC(=O)COc3ccc(F)cc3)nc2s1`, the “activity change, positive = activation” value was inactive: 11.9%.
